{
  "source": "patent US20090170937A1",
  "about": "“Amino Acid Derivatives” (Proximagen Ltd., priority 2006, published 2009)",
  "note": "The name of at least one read-out is uncertain. Non-standard residues stand in square brackets, D forms with d. Residues, ends and D or L forms follow the SMILES beside them. *: point of attachment. Dopa = N[C@@H](Cc1ccc(O)c(O)c1)C(=O)O; αMeF = C[C@](N)(Cc1ccccc1)C(=O)O; Aic = NC1(C(=O)O)Cc2ccccc2C1; Ac6c = NC1(C(=O)O)CCCCC1; Ac5c = NC1(C(=O)O)CCCC1; Ac4c = NC1(C(=O)O)CCC1; Ac3c = NC1(C(=O)O)CC1; Aib = CC(C)(N)C(=O)O; OcHex = C1CCC(O*)CC1; OBn = c1ccc(CO*)cc1; OiPr = CC(C)O*",
  "data": [
    {"test_system": "6-OHDA-lesioned rats", "assay": "Induction of rotational activity in 6-OHDA-lesioned rats", "assay_type": "in vivo, Male Wistar rats", "conditions": "i.p., 63.4 μmole/kg, after benserazide 10 mg/kg; rotations over up to 4 hours", "units": {"AUC activity (as % of L-DOPA AUC activity)": "%", "peak activity (as % of L-DOPA maximal activity)": "%"}, "values": [
      {"smiles": "COC(=O)[C@H](Cc1ccc(O)c(O)c1)NC(=O)C(C)(C)N.Cl", "note": "[Example 1, 1-[(S)-2-(3,4-Dihydroxyphenyl)-1-methoxycarbonylethylcarbamoyl]-1-methyl-ethylammonium Chloride] (H-[Aib]-[Dopa]-OMe)", "AUC activity (as % of L-DOPA AUC activity)": 69, "peak activity (as % of L-DOPA maximal activity)": 77}
    ]},
    {"test_system": "6-OHDA-lesioned rats", "assay": "Induction of rotational activity in 6-OHDA-lesioned rats", "assay_type": "in vivo, Male Wistar rats", "conditions": "p.o., 63.4 μmole/kg, after benserazide 10 mg/kg; rotations over up to 4 hours", "units": {"AUC activity (as % of L-DOPA AUC activity)": "%", "peak activity (as % of L-DOPA maximal activity)": "%"}, "values": [
      {"smiles": "CC(C)(N)C(=O)N[C@@H](Cc1ccc(O)c(O)c1)C(=O)O.Cl", "note": "[Example 6, 1-[(S)-1-Carboxy-2-(3,4-dihydroxyphenyl)-ethylcarbamoyl]-1-methylethyl-ammonium Chloride] (H-[Aib]-[Dopa]-OH)", "AUC activity (as % of L-DOPA AUC activity)": 65, "peak activity (as % of L-DOPA maximal activity)": 80},
      {"smiles": "Cl.NC1(C(=O)N[C@@H](Cc2ccc(O)c(O)c2)C(=O)O)CCC1", "note": "[Example 20, 1-[(S)-1-Carboxy-2-(3,4-dihydroxyphenyl)-ethylcarbamoyl]-cyclobutyl-ammonium Chloride] (H-[Ac4c]-[Dopa]-OH)", "AUC activity (as % of L-DOPA AUC activity)": 37, "peak activity (as % of L-DOPA maximal activity)": 59},
      {"smiles": "COC(=O)[C@H](Cc1ccc(OC(C)=O)c(OC(C)=O)c1)NC(=O)C1(N)CCC1.Cl", "note": "[Example 11, 1-[(S)-2-(3,4-Diacetoxyphenyl)-1-methoxycarbonylethylcarbamoyl]-cyclobutyl-ammonium Chloride]", "AUC activity (as % of L-DOPA AUC activity)": 75, "peak activity (as % of L-DOPA maximal activity)": 93},
      {"smiles": "CC(C)(N)C(=O)N[C@@H](Cc1ccc(O)c(O)c1)C(=O)OC1CCCCC1.Cl", "note": "[Example 18] (H-[Aib]-[Dopa]-OcHex)", "AUC activity (as % of L-DOPA AUC activity)": 105, "peak activity (as % of L-DOPA maximal activity)": 82},
      {"smiles": "COC(=O)[C@H](Cc1ccc(O)c(O)c1)NC(=O)C1(N)CCCCC1.Cl", "note": "[Example 4, 1-[(S)-2-(3,4-Dihydroxy-phenyl)-1-methoxycarbonyl-ethylcarbamoyl]-cyclohexyl-ammonium Chloride] (H-[Ac6c]-[Dopa]-OMe)", "AUC activity (as % of L-DOPA AUC activity)": 88, "peak activity (as % of L-DOPA maximal activity)": 107},
      {"smiles": "COC(=O)[C@H](Cc1ccc(OC(C)=O)c(OC(C)=O)c1)NC(=O)C1(N)CCCCC1.Cl", "note": "[Example 5, 1-[(S)-2-(3,4-Diacetoxyphenyl)-1-methoxycarbonylethylcarbamoyl]-cyclohexyl-ammonium Chloride]", "AUC activity (as % of L-DOPA AUC activity)": 42, "peak activity (as % of L-DOPA maximal activity)": 55},
      {"smiles": "COC(=O)[C@H](Cc1ccc(O)c(O)c1)NC(=O)C1(N)Cc2ccccc2C1.Cl", "note": "[Example 15, 2-[(S)-2-(3,4-Dihydroxyphenyl)-1-methoxycarbonylethylcarbamoyl]-indan-2-yl-ammonium Chloride] (H-[Aic]-[Dopa]-OMe)", "AUC activity (as % of L-DOPA AUC activity)": 41, "peak activity (as % of L-DOPA maximal activity)": 69},
      {"smiles": "COC(=O)[C@H](Cc1ccc(OC(C)=O)c(OC(C)=O)c1)NC(=O)C1(N)Cc2ccccc2C1.Cl", "note": "[Example 16, 2-[(S)-2-(3,4-Diacetoxyphenyl)-1-methoxycarbonylethylcarbamoyl]-indan-2-yl-ammonium Chloride]", "AUC activity (as % of L-DOPA AUC activity)": 41, "peak activity (as % of L-DOPA maximal activity)": 64},
      {"smiles": "COC(=O)[C@H](Cc1ccc(OC(C)=O)c(OC(C)=O)c1)NC(=O)C(C)(C)N.Cl", "note": "[Example 2, 1-[(S)-2-(3,4-Diacetoxyphenyl)-1-methoxycarbonylethylcarbamoyl]-1-methyl-ethylammonium Chloride]", "AUC activity (as % of L-DOPA AUC activity)": 55, "peak activity (as % of L-DOPA maximal activity)": 69},
      {"smiles": "Cl.NC1(C(=O)N[C@@H](Cc2ccc(O)c(O)c2)C(=O)O)CC1", "note": "[Example 21, 1-[(S)-1-Carboxy-2-(3,4-dihydroxyphenyl)-ethylcarbamoyl]-cyclopropyl Ammonium Chloride] (H-[Ac3c]-[Dopa]-OH)", "AUC activity (as % of L-DOPA AUC activity)": 53, "peak activity (as % of L-DOPA maximal activity)": 58},
      {"smiles": "COC(=O)[C@H](Cc1ccc(O)c(O)c1)NC(=O)[C@@](C)(N)Cc1ccccc1.Cl", "note": "[Example 12, (S)-1-[(S)-2-(3,4-Dihydroxyphenyl)-1-methoxycarbonyl-ethylcarbamoyl]-1-methyl-2-phenylethylammonium Chloride] (H-[αMeF]-[Dopa]-OMe)", "AUC activity (as % of L-DOPA AUC activity)": 32, "peak activity (as % of L-DOPA maximal activity)": 42},
      {"smiles": "CC(C)(N)C(=O)N[C@@H](Cc1ccc(O)c(O)c1)C(=O)OCc1ccccc1.Cl", "note": "[Example 3, 1-[(S)-1-Benzyloxycarbonyl-2-(3,4-dihydroxyphenyl)-ethylcarbamoyl]-1-methyl-ethylammonium Chloride] (H-[Aib]-[Dopa]-OBn)", "AUC activity (as % of L-DOPA AUC activity)": 46, "peak activity (as % of L-DOPA maximal activity)": 71},
      {"smiles": "COC(=O)[C@H](Cc1ccc(O)c(O)c1)NC(=O)C1(N)CCC1.Cl", "note": "[Example 10] (H-[Ac4c]-[Dopa]-OMe)", "AUC activity (as % of L-DOPA AUC activity)": 76, "peak activity (as % of L-DOPA maximal activity)": 62},
      {"smiles": "CC(=O)Oc1ccc(C[C@H](NC(=O)C(C)(C)N)C(=O)O)cc1OC(C)=O.Cl", "note": "[Example 9, 1-[(S)-1-Carboxy-2-(3,4-diacetoxyphenyl)-ethylcarbamoyl]-1-methylethyl-ammonium Chloride]", "AUC activity (as % of L-DOPA AUC activity)": 42, "peak activity (as % of L-DOPA maximal activity)": 66},
      {"smiles": "COC(=O)[C@H](Cc1ccc(OC(C)=O)c(OC(C)=O)c1)NC(=O)C1(N)CCCC1.Cl", "note": "[Example 8, 1-[(S)-2-(3,4-Diacetoxyphenyl)-1-methoxycarbonylethylcarbamoyl]-cyclopentyl-ammonium Chloride]", "AUC activity (as % of L-DOPA AUC activity)": 39, "peak activity (as % of L-DOPA maximal activity)": 61},
      {"smiles": "C[C@](N)(Cc1ccccc1)C(=O)N[C@@H](Cc1ccc(O)c(O)c1)C(=O)O.Cl", "note": "[Example 13, (S)-1-[(S)-1-Carboxy-2-(3,4-dihydroxyphenyl)-ethylcarbamoyl]-1-methyl-2-phenylethylammonium Chloride] (H-[αMeF]-[Dopa]-OH)", "AUC activity (as % of L-DOPA AUC activity)": 26, "peak activity (as % of L-DOPA maximal activity)": 37},
      {"smiles": "Cl.NC1(C(=O)N[C@@H](Cc2ccc(O)c(O)c2)C(=O)O)CCCC1", "note": "[Example 14, 1-[(S)-1-Carboxy-2-(3,4-dihydroxyphenyl)-ethylcarbamoyl]-cyclopentyl-ammonium Chloride] (H-[Ac5c]-[Dopa]-OH)", "AUC activity (as % of L-DOPA AUC activity)": 82, "peak activity (as % of L-DOPA maximal activity)": 119},
      {"smiles": "CC(C)CCOC(=O)[C@H](Cc1ccc(O)c(O)c1)NC(=O)C(C)(C)N.Cl", "note": "[Example 23, 1-[(S)-2-(3,4-Dihydroxyphenyl)-1-(3-methylbutoxycarbonyl)-ethylcarbamoyl]-1-methylethylammonium Chloride]", "AUC activity (as % of L-DOPA AUC activity)": 79, "peak activity (as % of L-DOPA maximal activity)": 59},
      {"smiles": "COC(=O)[C@H](Cc1ccc(OC(C)=O)c(OC(C)=O)c1)NC(=O)[C@@](C)(N)Cc1ccccc1.Cl", "note": "[Example 22, (S)-1-[(S)-2-(3,4-Diacetoxyphenyl)-1-methoxycarbonylethylcarbamoyl]-1-methyl-2-phenylethylammonium Chloride]", "AUC activity (as % of L-DOPA AUC activity)": 31, "peak activity (as % of L-DOPA maximal activity)": 64},
      {"smiles": "CC(C)OC(=O)[C@H](Cc1ccc(O)c(O)c1)NC(=O)C(C)(C)N.Cl", "note": "[Example 17, 1-[(S)-2-(3,4-Dihydroxyphenyl)-1-isopropoxycarbonylethylcarbamoyl]-1-methyl-ethylammonium Chloride] (H-[Aib]-[Dopa]-OiPr)", "AUC activity (as % of L-DOPA AUC activity)": 116, "peak activity (as % of L-DOPA maximal activity)": 149},
      {"smiles": "COC(=O)[C@H](Cc1ccc(O)c(O)c1)NC(=O)C1(N)CCCC1.Cl", "note": "[Example 7, 1-[(S)-2-(3,4-Dihydroxyphenyl)-1-methoxycarbonylethylcarbamoyl]-cyclopentyl-ammonium Chloride] (H-[Ac5c]-[Dopa]-OMe)", "AUC activity (as % of L-DOPA AUC activity)": 78, "peak activity (as % of L-DOPA maximal activity)": 105},
      {"smiles": "COC(=O)[C@H](Cc1ccc(OC(=O)CC(C)(C)C)c(OC(=O)CC(C)(C)C)c1)NC(=O)C1(N)CCCCC1.Cl", "note": "[Example 24, 1-{(S)-2-[3,4-Bis-(3,3-dimethylbutyryloxy)-phenyl]-1-methoxycarbonyl-ethylcarbamoyl}-cyclohexylammonium Chloride]", "AUC activity (as % of L-DOPA AUC activity)": 61, "peak activity (as % of L-DOPA maximal activity)": 62}
    ]}
  ]
}
